From PubChem BioAssay AID588855 (National Center for Advancing Translational Sciences (NCATS), 2011)
Out of some 410,000 compounds screened, about 5,000 (1.2%) were called active. Inconclusive results, whose numbers are uncertain, are shown with a selection of clear calls. The call rests on the fitted dose curve; in most records, active means well fitted inhibition curve with a large enough effect; inconclusive means small, poorly fitted or top-dose-only effect; inactive means no such curve, though single readings can be large or run the other way. Potencies beside an inconclusive call are fits to weak or partial responses and may not hold up.

Assay: qHTS for Inhibitors of TGF-b; further: nearly all actives have a fitted effect of over 65% in size
Conditions: HepG2 CAGA-GFP TGF-b/SMAD3 reporter, GFP fluorescence, 18 h, TGF-beta stimulated, 500 pg/mL final; series mostly up to 46.1 µM; activity, negative = inhibition: at the top concentration
Procedure, shortened: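 HEPG2 CAGA-GFP cells (1000/well, DMEM with 1% FBS) were pre-incubated 2 h at 37 degrees C, given compound by pin tool, then stimulated with TGF-beta at 500 pg/mL final for 18 h before per-cell GFP fluorescence imaging.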
On the % scale 0 is the no-effect control and ±100 the full control effect; potency means the concentration at half of the fitted maximal effect; tags describe the fitted curve by direction and shape.

| Structure (SMILES) | activity, negative = inhibition | Potency |
| --- | --- | --- |
| Cc1ccc(C(=O)NC(=S)NCC2CCCO2)cc1[N+](=O)[O-] (configuration not stated) | inactive: -2.2% |  |
| COc1cc(OC)c(C2CC(=O)N3CN(c4ccccc4)CSC3=C2C#N)cc1OC (configuration not stated) |  | inconclusive: 5.62 µM [inhibitor, full curve, poor fit] |
| COc1cc(OC)c(NS(=O)(=O)c2ccc3oc(=O)c4ncn(C)c4c3c2)cc1Cl |  | inconclusive: 25.1 µM [inhibitor, single point] |
| Cc1nn(C)cc1CNC(=O)c1cnn2c1NC(c1ccc(Br)cc1)CC2C(F)(F)F (configuration not stated) |  | inconclusive: 14.1 µM [inhibitor, single point] |
| COc1ccc(OC)c(NC(=O)CN(Cc2ccc(F)cc2)C2CCCCC2)c1 |  | inconclusive: 15.8 µM [inhibitor, single point] |
| COc1ccccc1-c1ccc(SCC(=O)NCCc2ccccc2)nn1 | inactive: 0.635% |  |
| Cn1c(CN2CCN(c3ccc(Cl)cc3)CC2)nc2ccccc21 |  | inconclusive: 7.94 µM [inhibitor, partial curve, poor fit] |
| COCCOc1ccc(C(F)(F)F)cc1NC(=O)c1ccccc1F |  | inconclusive: 35.5 µM [inhibitor, single point] |
| O=C(Nc1nc(-c2ccccn2)cs1)c1ccc([N+](=O)[O-])o1 |  | active: 8.91 µM |
| Cc1ccc(CN2C(=O)CSC(C)C2=O)cc1 (configuration not stated) | inactive: -0.893% |  |
| CCOC(=O)c1c(NC(=O)c2nc(S(C)(=O)=O)ncc2Cl)sc(C(C)=O)c1C |  | inconclusive: 3.55 µM [inhibitor, partial curve] |
| O=S(=O)(c1ccc(NC(=S)NCc2cccnc2)cc1)N1CCCCC1 |  | inconclusive: 8.91 µM [inhibitor, partial curve, poor fit] |
| CC(=O)[C@@]1(O)CCC2C3C=CC4=CC(=O)CC[C@]4(C)C3CC[C@@]21C (some centres not stated) | inactive: 2.45% |  |
| COc1ccccc1N(CC(=O)Nc1ccc(Br)cc1F)S(=O)(=O)c1cccs1 |  | inconclusive: 35.5 µM [inhibitor, single point] |
| O=C(C1CCCO1)N1CCN(C(=S)Nc2ccccc2)CC1 (configuration not stated) | inactive: 0% |  |
| Cc1nn(C(=O)CNS(=O)(=O)c2ccccc2)c(C)c1Sc1ccc(Cl)cc1 |  | inconclusive: 14.1 µM [inhibitor, partial curve, poor fit] |
| Cc1ccc(C)c(SCC(=O)Nc2nnc(-c3ccccc3)o2)c1 |  | inconclusive: 2.24 µM [inhibitor, partial curve, poor fit] |
| CCCc1ccc(-c2cc(C(=O)Nc3ccc([N+](=O)[O-])cn3)c3ccccc3n2)cc1 |  | inconclusive: 11.2 µM [inhibitor, single point] |
| COc1ccc(C(=O)Nc2cnn(Cc3c(F)cccc3Cl)c2)cc1OC | inactive: 12.9% |  |
| COc1ccc(CN2CC[C@H]3C=CC[C@@H](C(=O)NCCc4ccccc4)[C@H]3C2=O)cc1OC |  | inactive |
| C=CCn1c(SCc2ccc(F)cc2)nc2c1c(=O)[nH]c(=O)n2C |  | inconclusive: 0.631 µM [inhibitor, partial curve, poor fit] |
| C=CCN(C(=O)c1csnn1)C(C(=O)NC1CCCCC1)c1ccc(F)cc1 (configuration not stated) |  | inconclusive: 0.447 µM [inhibitor, partial curve, poor fit] |
| Cn1c(CO)cnc1S(=O)(=O)Cc1ccc([N+](=O)[O-])cc1 |  | inconclusive: 20 µM [inhibitor, single point] |

| Structure (SMILES) | activity, negative = inhibition | Potency |
| --- | --- | --- |
| COc1ccc(C(=O)NCC(c2ccc3c(c2)OCO3)N2CCN(c3ccccc3F)CC2)cc1 (configuration not stated) |  | inconclusive: 8.91 µM [inhibitor, partial curve] |
| COc1ccc(-c2[nH]c(-c3ccccc3)nc2SCC(=O)Nc2nccs2)cc1 | inactive: -17.3% |  |
| COc1cc(/C=C2/C(=O)NN(c3cccc(C)c3)C2=O)ccc1OC(=O)c1ccco1 |  | inconclusive: 15.8 µM [inhibitor, single point] |
| C/C(=N\NC(=O)c1nnn(-c2nonc2N)c1CSc1ccc(C)cc1)c1ccco1 | inactive: -1.48% |  |
| O=C(c1ccc2ccccc2c1)N1CCN(c2ccc([N+](=O)[O-])c(N3CCOCC3)c2)CC1 |  | inconclusive: 2.51 µM [inhibitor, partial curve, poor fit] |
| CS/C(=N\NC(N)=O)c1ccccc1 |  | inconclusive: 35.5 µM [inhibitor, partial curve, poor fit] |
| C/C(=C\C(=S)Nc1ccccc1)Nc1ccc2ccccc2c1 |  | inconclusive: 20 µM [inhibitor, single point] |
| CCOC(=O)/C=C/C(=O)Nc1ccccc1-c1ccccc1NC(=O)/C=C/C(=O)OCC | inactive: 0% |  |
| O=C(NCC(c1ccco1)N1CCN(c2ccccc2)CC1)C1CCCCC1 (configuration not stated) | inactive: 2.72% |  |
| COc1cccc(Nc2nc(N)c([N+](=O)[O-])c(NCc3ccccc3)n2)c1 |  | inconclusive: 35.5 µM [inhibitor, single point] |
| Clc1ccc(-n2c(SCc3nc4ccccc4[nH]3)nnc2-c2ccncc2)cc1 |  | inconclusive: 0.251 µM [inhibitor, full curve, poor fit] |
| COc1cccc(C2CC(=O)Nc3c2c(=O)[nH]c2nc4ccccc4n32)c1 (configuration not stated) | inactive: 6.62% |  |
| CC(C(=O)NC(=O)NC1CCCCC1)N1CCN(c2ccc(O)cc2)CC1 (configuration not stated) | inactive: -1.69% |  |
| Cc1ccccc1/C=N/Nc1nc2ccccc2c(=O)n1O | inactive: 7.44% |  |
| COC(=O)c1cccc(/C=N/NC(N)=S)c1O |  | inconclusive: 0.708 µM [inhibitor, full curve, poor fit] |
| C=CCN1C(=O)/C(=C/c2ccc(-c3ccc(F)cc3)o2)SC1=S | inactive: -11.6% |  |
| COc1cc(C)c(Cl)cc1S(=O)(=O)n1cnc(C)c1 | inactive: -2.71% |  |
| O=C(Cn1ccc([N+](=O)[O-])n1)N1CCc2ccccc21 |  | inconclusive: 3.16 µM [inhibitor, single point] |
| Cc1ccc(C)c2[nH]c(=O)c(C(c3nnnn3Cc3ccco3)N3CCc4ccccc4C3)cc12 (configuration not stated) |  | inconclusive: 17.8 µM [inhibitor, single point] |
| CCCCCCN1C[C@H](O)[C@@H](n2cc(COC(=O)c3ccccc3)nn2)C[C@@H]1c1ccc(Cl)cc1 |  | inconclusive: 15.8 µM [inhibitor, single point] |
| CCOc1ccc(C(=O)Nc2ccccc2N2CCN(C(=O)c3ccccc3)CC2)cc1[N+](=O)[O-] | inactive: 0% |  |
| CC1(C(=O)NCc2cccc3ccccc23)CCN1Cc1cccc2c1OCO2 (configuration not stated) |  | inconclusive: 35.5 µM [inhibitor, single point] |
| O=C(C1=C[C@@H](c2ccc(C(F)(F)F)cc2)C[C@@H](OCCCCO)O1)N1CCN(Cc2ccccc2)CC1 | inactive: -22.2% |  |

| Structure (SMILES) | activity, negative = inhibition | Potency |
| --- | --- | --- |
| CCOc1ccc(S(=O)(=O)N(C)c2ccc(OCC(=O)NCc3cccnc3)cc2)cc1 |  | inconclusive: 2 µM [inhibitor, partial curve, poor fit] |
| C[C@H](NC(=O)c1nc[nH]c1C(=O)N[C@@H](C)C(=O)OCc1ccccc1)C(=O)OCc1ccccc1 |  | inconclusive: 15.8 µM [inhibitor, partial curve] |
| O=C(CCC(=O)Nc1ccccc1Cl)NNC(=O)c1ccccc1[N+](=O)[O-] |  | inconclusive: 3.55 µM [inhibitor, single point] |
| CCOc1cc(/C=C2\C(=O)N(Cc3ccc(C)cc3)C(C)=C2C(=O)OC)ccc1O |  | inconclusive: 8.91 µM [inhibitor, partial curve, poor fit] |
| CCN(CC(=O)NC(C)(C)C)Cc1nc2c(Br)cc(Br)cc2c(=O)[nH]1 |  | inconclusive: 14.1 µM [inhibitor, partial curve, poor fit] |
| COc1cccc(-c2nc(NC3CCCC3)c3ccccc3n2)c1O |  | inconclusive: 35.5 µM [inhibitor, single point] |
| COc1ccc(-c2coc3c(C(=O)NC4CCCCC4)cccc23)c(C)c1 |  | inconclusive: 15.8 µM [inhibitor, single point] |
| CCc1ccc([C@H]2[C@@H]3C(=O)C[C@@H]4C(=O)N(C5CCCCC5)C(=O)[C@@H]4[C@@H]3CN2S(=O)(=O)c2ccc(C)cc2)cc1 | inactive: -16.2% |  |
| CCc1ccc(S(=O)(=O)Nc2ccc(O)c3ccccc23)cc1 |  | inconclusive: 35.5 µM [inhibitor, single point] |
| Cc1occc1C(=O)NC(C)C1CCCO1 (configuration not stated) |  | inconclusive: 25.1 µM [inhibitor, single point] |
| CN(C)c1ccc(NC2=C(Cl)C(=O)c3ccccc3C2=O)cc1 |  | active: 5.62 µM |
| Cc1cc(C)nc(N2CCCC(C(=O)NCCc3cccc(F)c3)C2)n1 (configuration not stated) |  | inconclusive: 0.708 µM [inhibitor, partial curve, poor fit] |
| O=C(NCc1ccccc1C(F)(F)F)C1CC(O)CN1C(=O)Nc1ccccc1 (configuration not stated) | inactive: 10.4% |  |
| CCCn1c2ccccc2c2cnn(CC(=O)N3CCN(c4ccccc4)CC3)c(=O)c21 |  | inconclusive: 15.8 µM [inhibitor, partial curve] |
| Cc1cc(C)c2c(N)c(S(=O)c3ccc(C(C)(C)C)cc3)sc2n1 (configuration not stated) |  | inconclusive: 35.5 µM [inhibitor, single point] |
| CCCCN1C(=O)C(O)(CC(=O)c2ccc(C(C)(C)C)cc2)c2ccccc21 (configuration not stated) |  | inconclusive: 20 µM [inhibitor, single point] |
| O=C(Nc1ccccc1)N1CCCN(c2ccc(C(F)(F)F)cc2[N+](=O)[O-])CC1 | inactive: 16.8% |  |
| COc1cc(C(=S)N2CCCCC2)ccc1OCC(=O)N1CCCC1 |  | inconclusive: 6.31 µM [inhibitor, single point] |
| O=C(N/N=C\c1ccc(-c2cccc(Cl)c2)o1)C(=O)NC1CCCC1 | inactive: 0.0887% |  |
| COCCNC(=O)C1Cc2c(-c3cccc(NC(C)=O)c3)ccnc2O1 (configuration not stated) | inactive: 45.1% |  |
| CCN(Cc1nc2cc(Cl)ccc2c(=O)[nH]1)C(=O)COc1ccccc1Cc1ccccc1 |  | inconclusive: 35.5 µM [inhibitor, single point] |
